The values that follow come from paper PMC5467236.

Where two headings read alike, the source gives them in different places.

For orientation: stoichiometry N means a count of units in the complex or per binding partner.

Assay [1] concerns the target full-length CaMKIIα wild type (Ca2+/calmodulin-dependent protein kinase II α) holoenzyme (rat) (UniProt P11275). Description: negative-stain single particle EM; purified CaMKIIα (~100 nM) in 50 mM HEPES pH 7.4, 120 mM KCl, 0.5 mM EGTA on carbon grids, uranyl formate stain; reference-free and focused 2D classification, tilted-series 3D reconstruction at ~20 Å with D6 symmetry; general features also seen in vitrified specimens.

Assay [2] shares this target. The description is as above. This is another data set of the same source.

Turning to “full-length CaMKIIα wild type (Ca2+/calmodulin-dependent protein kinase II α) holoenzyme (a stretch of the chain, sequence left out) (enzyme; other documents disagree on this pair)”, the stoichiometry N in assay [1] turned out to be 12; in assay [2] it was 14.
